The campaign covered roughly 310,000 compounds. About 14,000 (4.5%) showed an effect of 50% or more. Effects have a minus sign here. Some of the results follow.
molecular target: human ether-à-go-go-related gene (hERG) potassium channel (human, UniProt Q12809); test: primary screen, population patch clamp on CHO cells stably expressing hERG
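Also: peak tail current of the secondary pulse compared with the same well before compound.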

Chain of human ether-à-go-go-related gene (hERG) potassium channel (Q12809 whole entry, looked up): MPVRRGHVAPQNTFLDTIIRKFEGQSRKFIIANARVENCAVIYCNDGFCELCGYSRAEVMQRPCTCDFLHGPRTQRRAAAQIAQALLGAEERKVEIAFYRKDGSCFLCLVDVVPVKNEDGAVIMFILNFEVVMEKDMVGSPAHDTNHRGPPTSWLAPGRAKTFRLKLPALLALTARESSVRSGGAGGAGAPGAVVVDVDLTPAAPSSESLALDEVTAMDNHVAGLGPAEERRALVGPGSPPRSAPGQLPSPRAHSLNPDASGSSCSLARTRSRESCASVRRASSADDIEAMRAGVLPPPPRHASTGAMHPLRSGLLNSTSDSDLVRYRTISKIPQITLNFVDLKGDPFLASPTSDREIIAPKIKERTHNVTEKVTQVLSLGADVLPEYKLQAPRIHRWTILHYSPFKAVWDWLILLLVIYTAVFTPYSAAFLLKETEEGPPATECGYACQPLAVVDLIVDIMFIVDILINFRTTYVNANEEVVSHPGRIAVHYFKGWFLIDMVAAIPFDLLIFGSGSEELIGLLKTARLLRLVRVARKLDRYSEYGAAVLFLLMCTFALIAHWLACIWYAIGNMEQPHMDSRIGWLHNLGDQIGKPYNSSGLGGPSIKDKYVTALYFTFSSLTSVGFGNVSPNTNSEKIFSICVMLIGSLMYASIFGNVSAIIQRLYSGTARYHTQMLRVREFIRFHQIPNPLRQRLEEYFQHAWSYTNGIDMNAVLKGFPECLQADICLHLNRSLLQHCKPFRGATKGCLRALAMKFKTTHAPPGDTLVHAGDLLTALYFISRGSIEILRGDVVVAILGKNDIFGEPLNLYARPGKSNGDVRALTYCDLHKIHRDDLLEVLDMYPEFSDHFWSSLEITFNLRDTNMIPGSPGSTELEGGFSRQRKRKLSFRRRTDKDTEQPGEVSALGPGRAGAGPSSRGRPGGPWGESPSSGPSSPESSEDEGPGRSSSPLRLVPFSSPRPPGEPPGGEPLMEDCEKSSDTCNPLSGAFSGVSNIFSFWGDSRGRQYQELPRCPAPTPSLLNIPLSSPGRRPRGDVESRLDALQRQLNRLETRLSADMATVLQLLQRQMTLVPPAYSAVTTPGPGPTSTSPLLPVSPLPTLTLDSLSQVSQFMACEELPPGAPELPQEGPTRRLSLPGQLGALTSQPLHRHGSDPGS

| Structure (SMILES) | hERG current change (%, negative = inhibition) at 10uM |
| --- | --- |
| OCCC1CN(C/C(Cl)=C/c2ccccc2)CCN1C1CCCC1 (centres unmarked) | -77.4% |
| O=C(c1cccs1)N1CCCC(c2nc3c(nnn3Cc3c(Cl)cccc3Cl)c(=O)[nH]2)C1 (centres unmarked) | -46.9% |
| COc1cccc(/C=C2\SC(=S)N(C(C(=O)O)c3ccccc3)C2=O)c1OC (centres unmarked) | 6.28% |
| Cc1ccc(N2CCN(c3ccc(NCc4nc5ccccc5n4C)cc3)CC2)cc1 | -1.66% |
| CCCCCN1CC(=O)N2C(C)c3[nH]c4ccccc4c3C[C@H]2C1=O (some centres unmarked) | 0.205% |
| Cc1cc(NC(=O)COc2ncnc3sc(C)c(C)c23)no1 | -0.551% |
| Cc1ccc(-c2nc(CS(=O)(=O)CC(=O)NCc3cccc(F)c3)c(C)o2)cc1 | 9.53% |
| COc1ccc(NC(=O)Cn2nc(Cc3cccnc3)c3ccccc3c2=O)c(OC)c1 | -32.2% |
| CCN(CC)S(=O)(=O)c1cccc(C(=O)Nc2cc(C)nn2-c2ccccc2)c1 | -27.8% |
| CCn1c(=O)cc(SCC(=O)N2CCN(C3CCCCC3)CC2)c2ccccc21 | -38.1% |
| CCCC(=O)N1CCN(c2nc3ccc(Cl)cc3s2)CC1 | -70.2% |
| O=S(=O)(Nc1cccnc1)c1ccc(Cl)c(C(F)(F)F)c1 | -6.18% |
| O=C(CSc1ccc(Cl)cc1)Nc1ccccc1Oc1ccccc1 | 2.7% |
| Cc1ccc(-c2csc(N3CCN(c4cc5c(cc4Cl)nc(C(C)N)n5CCCO)CC3)n2)cc1 (centres unmarked) | 9.27% |
| C=C1CCN([C@@H](Cc2ccccc2)C(=O)NCCC(C)C)S(=O)(=O)c2ccccc21 | -15.2% |
| O=[N+]([O-])c1ccc(CNc2cccc(F)c2)s1 | -32.3% |
| O=C(N/C(=C\c1cn(-c2ccccc2)nc1-c1ccccc1)C(=O)N1CCOCC1)c1ccccc1 | 15.5% |
| O=C1CCCC2=C1C(c1ccccc1)NC(=S)N2 (centres unmarked) | 25.1% |
| Cc1cc(C(C#N)c2ccccc2)n2ncnc2n1 (centres unmarked) | -0.89% |
| NC(=O)c1ccc(NC(=O)CN2CCN(Cc3ccccc3)CC2)cc1 | -0.874% |
| CCOC(=O)C1=C(Nc2ccc(C)cc2)CC(C)(O)C(C(=O)OCC)C1c1ccccc1 (centres unmarked) | 16.3% |
| Cc1ccc2c(c1)c1nnc(SCC(=O)N3CCCc4ccccc43)nc1n2CC(=O)O | 20.2% |
| Cc1ccccc1OCCCCn1cnc2ccccc21 | -49.4% |
